Measurements taken from ChEMBL document CHEMBL1144677, “Novel quinazolinone derivatives as 5-HT7 receptor ligands” (Bioorg Med Chem, 2008).

Experiments:
[1] = biological target: T1, 5-hydroxytryptamine receptor 2C (Homo sapiens, UniProt P28335)
T1 sequence (P28335 whole entry): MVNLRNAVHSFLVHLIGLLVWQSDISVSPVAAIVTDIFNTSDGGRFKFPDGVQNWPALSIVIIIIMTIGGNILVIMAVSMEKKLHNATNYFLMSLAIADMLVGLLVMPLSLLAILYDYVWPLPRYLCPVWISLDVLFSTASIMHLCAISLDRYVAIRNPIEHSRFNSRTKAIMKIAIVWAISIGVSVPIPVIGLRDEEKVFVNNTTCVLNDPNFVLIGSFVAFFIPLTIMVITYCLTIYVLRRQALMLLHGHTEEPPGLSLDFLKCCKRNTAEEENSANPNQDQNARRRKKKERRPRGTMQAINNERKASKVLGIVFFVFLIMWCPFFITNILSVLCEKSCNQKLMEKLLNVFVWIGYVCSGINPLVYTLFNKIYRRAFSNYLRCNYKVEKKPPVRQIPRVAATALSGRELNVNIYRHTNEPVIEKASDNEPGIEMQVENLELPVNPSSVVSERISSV

[2] = biological target: 5-hydroxytryptamine receptor 2A (Homo sapiens, UniProt P28223)
D(2) dopamine receptor = D(2) dopamine receptor (Homo sapiens, UniProt P14416)
[3] = biological target: T2, 5-hydroxytryptamine receptor 1A (Homo sapiens, UniProt P08908)
T2 sequence (P08908 whole entry): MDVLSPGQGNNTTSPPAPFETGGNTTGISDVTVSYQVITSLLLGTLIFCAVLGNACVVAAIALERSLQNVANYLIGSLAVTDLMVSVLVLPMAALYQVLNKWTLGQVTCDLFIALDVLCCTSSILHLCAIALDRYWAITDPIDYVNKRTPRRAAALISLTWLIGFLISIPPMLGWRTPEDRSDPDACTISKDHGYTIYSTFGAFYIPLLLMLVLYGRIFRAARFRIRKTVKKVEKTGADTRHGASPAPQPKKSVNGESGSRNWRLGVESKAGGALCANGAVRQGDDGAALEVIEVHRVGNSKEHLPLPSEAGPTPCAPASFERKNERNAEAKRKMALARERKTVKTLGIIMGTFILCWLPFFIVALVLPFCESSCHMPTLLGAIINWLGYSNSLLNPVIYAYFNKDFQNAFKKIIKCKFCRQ

Sequence of 5-hydroxytryptamine receptor 2A (P28223 whole entry): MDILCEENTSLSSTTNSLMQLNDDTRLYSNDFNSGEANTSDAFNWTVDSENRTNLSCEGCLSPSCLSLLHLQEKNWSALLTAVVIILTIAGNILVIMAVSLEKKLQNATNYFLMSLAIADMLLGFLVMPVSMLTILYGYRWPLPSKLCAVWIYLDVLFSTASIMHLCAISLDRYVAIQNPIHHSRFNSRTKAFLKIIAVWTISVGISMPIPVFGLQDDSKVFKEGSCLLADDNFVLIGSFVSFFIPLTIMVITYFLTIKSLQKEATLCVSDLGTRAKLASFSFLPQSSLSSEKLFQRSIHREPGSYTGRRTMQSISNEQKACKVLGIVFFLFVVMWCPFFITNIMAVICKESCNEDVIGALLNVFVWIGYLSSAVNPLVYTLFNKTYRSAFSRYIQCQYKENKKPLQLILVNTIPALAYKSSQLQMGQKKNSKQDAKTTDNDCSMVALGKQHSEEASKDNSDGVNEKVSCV
Sequence of D(2) dopamine receptor (P14416 whole entry): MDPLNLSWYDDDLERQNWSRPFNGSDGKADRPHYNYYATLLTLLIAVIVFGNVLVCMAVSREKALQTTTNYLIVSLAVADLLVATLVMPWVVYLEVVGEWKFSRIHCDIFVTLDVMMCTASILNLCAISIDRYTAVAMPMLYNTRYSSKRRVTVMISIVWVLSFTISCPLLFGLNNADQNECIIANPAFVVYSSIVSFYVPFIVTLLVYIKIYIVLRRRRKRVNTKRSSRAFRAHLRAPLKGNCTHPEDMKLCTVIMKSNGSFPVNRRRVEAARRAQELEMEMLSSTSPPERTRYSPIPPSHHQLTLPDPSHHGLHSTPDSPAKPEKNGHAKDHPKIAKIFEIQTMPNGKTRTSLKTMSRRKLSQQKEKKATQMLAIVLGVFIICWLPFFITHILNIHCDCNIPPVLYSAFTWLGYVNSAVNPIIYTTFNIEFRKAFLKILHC

SMILES	IC50 [1] [nM]	IC50 [2] [nM]	IC50 (D(2) dopamine receptor) [nM]	IC50 [3] [nM]
Cc1cccc(N2CCN(CCCC(=O)NCc3nc4cc(F)ccc4c(=O)n3-c3ccccc3)CC2)c1C	3400	1700	1500	400
CCOc1ccccc1N1CCN(CCCC(=O)NCc2nc3cc(F)ccc3c(=O)n2-c2ccc(OC)cc2)CC1	3800	2100	1500	370
CCOc1ccccc1N1CCN(CCCC(=O)NCc2nc3ccc(F)cc3c(=O)n2-c2ccc(OC)cc2)CC1	> 10000	7900	140	120
